For orientation: % Inhibition means the drop in the measured response relative to a control, in per cent.

Out of some 150,000 compounds screened, about 540 (0.36%) showed an effect of 50% or more. This is one part of the list.

The experiment has as its system Plasmodium falciparum. Briefly: Primary screen in NF54 nanoGlo assay, in single point, at 2uM, 72h; a lower Z score goes with more inhibition. Type of experiment: functional, Erythrocyte. The following applies: timepoint 72 hour.
Consider `Cn1nc(C(=O)N2C3CCC2CC(CC(F)F)C3)cc1O` (stereo unspecified), for which the “% Inhibition” value is -12% and the Z score worked out at 2.39.

With `Cc1oc(C)c(C(=O)N2CCOc3ccccc3[C@@H]2CO)c1C`, the “% Inhibition” value is 2% and the Z score is -0.28.

`Cc1nccc(-c2cccc(NC(=O)NCCCn3nc(C)c(C)c3C)c2)n1`: the “% Inhibition” value is given as -3% and the Z score was determined as 0.39.

As for `C[C@H]1CCCN(C(=O)COCc2nc(-c3ccccc3)no2)CC1`, the “% Inhibition” value is on record as -4% and the Z score worked out at 0.56.

As to `N#Cc1ccc(C=Cc2ccc3c(c2)NC(=O)CO3)nc1`, the “% Inhibition” value is given as 11% and the Z score is recorded as -1.31.

Take `Cc1csc(NC(=O)c2c[nH]c(C)cc2=O)n1`: the “% Inhibition” value was -17% and the Z score is 1.89.

As to `O=C(N[C@H]1CCO[C@@H]1c1ccccc1)c1cc(C(F)F)ncn1`, the “% Inhibition” value is given as 7% and the Z score is -0.83.

As for `CCNS(=O)(=O)N1C[C@H](C(=O)OC)[C@@H](c2ccc(F)cc2F)C1`, the “% Inhibition” value was -5% and the Z score came out at 0.72.

For the compound `COc1ccc(C(=O)N[C@H]2C[C@H]3C(=O)NC[C@@H](CCC(=O)NCc4cccnc4)N3C2)cc1`, the “% Inhibition” value came out at 30% and the Z score was -3.34.

Consider `CN(C[C@H]1CCCN1C)C(=O)NCc1nn(C)cc1Br`, for which the “% Inhibition” value worked out at 0% and the Z score is listed as -0.05.

With `CS(=O)(=O)N[C@H]1CCOC2(CCCC2)C1`, the “% Inhibition” value is -18% and the Z score is given as 2.26.

With `CC(C)c1noc(COc2cc(OCc3nc(C(C)C)no3)c(Cl)cc2Cl)n1`, the “% Inhibition” value is given as -8% and the Z score amounted to 1.48.

On to `FC(F)(F)c1cc(CNc2ncnc3c2CCCCC3)ccn1`, for which the “% Inhibition” value is listed as -5% and the Z score is 0.79.

As for `C[C@H](NC(=O)Cc1noc(CCC2(C)CC2)n1)c1ccccc1`, the “% Inhibition” value turned out to be 11% and the Z score is on record as -1.39.

Turning to `CC(C)(C)c1ccc([C@@H]2CCCN2)cc1`, the “% Inhibition” value is given as -8% and the Z score was found to be 1.22.

On to `C[C@H](OC(=O)c1ccc(C(N)=O)cc1)C(F)(F)F`, for which the “% Inhibition” value was -3% and the Z score is recorded as 0.53.

`Cn1cc(NC(=O)NC2CCN(Cc3ccccc3)CC2)ccc1=O`: the “% Inhibition” value is -10% and the Z score is recorded as 1.31.

Take `Cc1nn(C)c2c1C[C@H](Nc1cnccn1)CN2`: the “% Inhibition” value was -6% and the Z score stood at 1.15.

For `Cc1cc2[nH]c(C(=O)Nc3ccccc3F)c(CN3CCCC3)c2s1`, the “% Inhibition” value is recorded as -12% and the Z score is reported as 1.2.

With `CC[C@@H](C(=O)NCCC1CCN(C)CC1)N(c1ccc(C)cc1)S(C)(=O)=O`, the “% Inhibition” value was -4% and the Z score amounted to 0.62.

As to `O=C(NCc1ccccc1F)C1CCN(c2cncnc2N2CCCC2)CC1`, the “% Inhibition” value was 38% and the Z score is on record as -1.76.

For `Fc1ccc(OC[C@H]2CCCN2)cc1Cl`, the “% Inhibition” value is given as 1% and the Z score is on record as -0.19.

As to `CC1(C)CC(c2ccccc2)N(C(=O)C2CCc3nncn3C2)C1` (stereo unspecified), the “% Inhibition” value is -6% and the Z score was 1.14.

With `Cn1nc(C2CCN(C(=O)c3ccco3)CC2)c2c1CCOC2`, the “% Inhibition” value was -8% and the Z score was determined as 1.03.

Regarding `CCc1[nH]nc(-c2ccc(F)c(F)c2)c1NC(=O)c1ccc(Cl)cc1`, the “% Inhibition” value is recorded as -9% and the Z score is 1.36.

Regarding `c1ccc(-c2cnc3n2C[C@H](CNC2CCCC2)OC3)cc1`, the “% Inhibition” value is reported as 8% and the Z score was -1.18.

Turning to `Cn1ccnc1C1(O)CN(C(=O)OCC(F)(F)F)C1`, the “% Inhibition” value is recorded as 1% and the Z score is recorded as -0.2.

`Cc1ccc(C[C@H](Nc2ncnc3onc(C)c23)c2ccccn2)cc1`: the “% Inhibition” value is -1% and the Z score came out at 0.14.

For the compound `CC1CCCCC1N(C)C(=O)c1cccc[n+]1[O-]` (stereo unspecified), the “% Inhibition” value was 2% and the Z score is -0.26.

Take `Cc1cc(F)cc2c1N(CC(=O)N1CCC[C@H](C(N)=O)C1)CCC2`: the “% Inhibition” value was determined as 8% and the Z score is reported as -1.08.

Regarding `Cc1ccc(NC(=O)CN(Cc2cocn2)Cc2cocn2)cc1F`, the “% Inhibition” value was 3% and the Z score is -0.37.

With `NC(=O)NCCc1ccc(F)c(F)c1F`, the “% Inhibition” value is -2% and the Z score turned out to be 0.23.

In the case of `CNS(=O)(=O)CCNC(=O)Nc1cc2c(cc1N(C)C)n(C)c(=O)n2C`, the “% Inhibition” value was -6% and the Z score is 0.7.

On to `Cc1nn(C)c(C)c1C(=O)Oc1ccc2cn[nH]c2c1`, for which the “% Inhibition” value is -4% and the Z score was found to be 0.46.

In the case of `CC(=O)c1ccc(S(=O)(=O)N2CCC[C@H](C(=O)c3cccc(OC(C)C)c3)C2)cc1`, the “% Inhibition” value is listed as 2% and the Z score is reported as -0.14.

On to `Cc1cccc(N2CCC(N[C@H]3CCCCNC3=O)CC2)c1C`, for which the “% Inhibition” value is recorded as 15% and the Z score was -2.05.

With `COc1cc2c(cc1OC)CN(c1cc(C3CC(O)C3)ncn1)CC2` (stereo unspecified), the “% Inhibition” value is on record as -2% and the Z score is 0.24.

In the case of `C[C@H](N)C(=O)N1CCCC1Cc1ccc2ccccc2c1` (stereo partly specified), the “% Inhibition” value is -4% and the Z score is 0.33.

`Cc1nn(C)c(C)c1-c1cc(C(=O)Nc2cc(F)ccc2F)c2c(C)nn(C)c2n1`: the “% Inhibition” value turned out to be 32% and the Z score was -0.15.

`C[C@@H](CNC(=O)N1CCN(Cc2ccc3c(c2)OCO3)CC1)n1ccnc1`: the “% Inhibition” value was -13% and the Z score is given as 2.2.

For the compound `CCN(CC)S(=O)(=O)NC1CCCCCC1`, the “% Inhibition” value is listed as -15% and the Z score was 1.5.

Consider `O=C(C[C@@H]1C=CCC1)NC1CCCCC1`, for which the “% Inhibition” value is listed as -12% and the Z score was determined as 1.46.

On to `C=CCNC(=O)CN(C)Cc1snnc1C`, for which the “% Inhibition” value was -10% and the Z score is on record as 1.48.

For the origin of these results see ChEMBL document CHEMBL4888484, “Replenishing the malaria drug discovery pipeline: Screening and hit evaluation of the MMV Hit Generation Library 1 (HGL1) against asexual blood stage Plasmodium falciparum ,using a nano luciferase reporter read-out” (2022).
